Results published in PubChem BioAssay AID686979 (National Center for Advancing Translational Sciences (NCATS), 2013).
Among all 420,000 compounds or so, about 50,000 (12%) were called active. Inconclusive results, whose numbers are uncertain, are shown with a selection of clear calls. The call rests on the fitted dose curve; in most records, active means well fitted inhibition curve with a large enough effect; inconclusive means small, poorly fitted or top-dose-only effect; inactive means flat fitted curve, though single readings scatter. No potency is given beside an inconclusive call; the fits are too rough.

Assay: qHTS for Inhibitors of human tyrosyl-DNA phosphodiesterase 1 (TDP1): qHTS in cells in presence of CPT; further: nearly all actives have a fitted effect of over 55% in size
Conditions: chicken DT40 Tdp1-/-;hTDP1 cells + 20 nM CPT, ATP luminescence, 48 h; series mostly up to 46.2 µM
How it was run: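 Cell growth measured by CellTiter-Glo luminescence after a minimum 48 h, 37 C compound exposure with 20 nM CPT in Tdp1-knockout DT40 cells stably expressing hTDP1, seeded 400/well; qHTS titration format.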
Potency means the concentration at half of the fitted maximal effect; tags describe the fitted curve by direction and shape.

SMILES	Potency
COc1ccc(S(=O)(=O)Oc2ccc3ccccc3c2)cc1	active: 16.4 µM
COc1ccc(-c2cc(C(F)(F)F)nc(SCC(=O)NCc3cccs3)n2)cc1	inconclusive [inhibitor, single point]
CSc1cccc(NS(=O)(=O)c2ccc3[nH]cc(C(=O)N4CCCC4)c(=O)c3c2)c1	inactive
CCOc1ccc(N(CC(=O)NCCc2ccccc2)C(=O)c2csnn2)cc1	inactive
CC(=O)c1ccc(-c2cnc3c(NC=O)cc(-c4ccc(C(=O)N5CCOCC5)cc4)cn23)cc1	active: 16.4 µM
COc1ccc(-n2c(COc3ccc(C)cc3)n[nH]c2=S)cc1	inconclusive [inhibitor, single point]
CC1(c2cccc(Br)c2)NC(=O)N(CC(=O)NCCC2=CCCCC2)C1=O (stereo unspecified)	inconclusive [inhibitor, single point]
COc1cccc2sc3cc(C#CC4(O)CCCCC4)ccc3c(=O)c12	active: 7.31 µM
CCCCC1Cc2[nH]c(=S)[nH]c(=O)c2C(C(C)C)O1 (stereo unspecified)	inconclusive [inhibitor, single point]
CCOC(=O)c1ccc(N=C2NC(=O)CS2)cc1	inactive
COCCNC(=O)CSc1cc(=O)n(C)c2cc(Cl)ccc12	inactive
C[C@H]1CN([C@@H](C)CO)C(=O)CCCn2cc(nn2)CO[C@@H]1CN(C)C(=O)Nc1ccc(F)cc1	inactive
CS(=O)(=O)c1ccccc1C(=O)Nc1ccc2sccc2c1	inactive
CN(C)CCNc1ncnc2c1sc1nc(N3CCCC3)c3c(c12)CC(C)(C)OC3	inconclusive [inhibitor, single point]
Cc1cccc2nc(-c3cccc(NC(=O)c4ccc(Cl)cc4)c3)cn12	active: 20.6 µM
COc1ccc(C2/C(=C(/O)c3ccccc3)C(=O)C(=O)N2CCO)cc1 (stereo unspecified)	inconclusive [inhibitor, single point]
Cn1c(=O)n(C)c2cc(N3CCCCC3)c(NC(=O)c3ccc(Cl)cc3)cc21	inactive
Cc1cccc(NC(=O)C2C3C=CC(C4CC34)C2C(=O)O)c1 (stereo unspecified)	inconclusive [inhibitor, partial curve]
NS(=O)(=O)c1ccc(NC(=S)NCc2ccc(Cl)cc2)cc1	inconclusive [inhibitor, single point]
Cc1cc(NC(=O)c2cn(C3CCCCC3)c(=O)c3c2c2ccccc2n3C)no1	inconclusive [inhibitor, single point]
COC(=O)/C(C#N)=C/c1ccc(-c2ccc(S(N)(=O)=O)cc2)o1	inactive
